# In ChEMBL document CHEMBL5606460, “ASAP - DENV-2 NS2B-NS3 protease fluorescence single point” (2024):
# The campaign covered roughly 2,000 compounds. About 110 (5.5%) showed an effect of 50% or more. The list shows a part of the results.
# Molecular target: Genome polyprotein (dengue virus type 2) (UniProt P29990)
# [1] = Thailand/16681/1984, Concentration 25.0 uM, Number of replicates 1.0
smiles,measurement,setting,value
CNC(=O)c1cc(Cl)c(F)cc1NS(=O)(=O)c1ccc(Oc2ccccc2Cl)cc1,inhibition,"Thailand/16681/1984, Concentration 49.5 uM, Number of replicates 2.0, Standard deviation 0.030615470758313425 %",98.6%
same,inhibition,"Thailand/16681/1984, Concentration 99.01 uM, Number of replicates 2.0, Standard deviation 0.03013533386007732 %",99.7%
same,inhibition,"Thailand/16681/1984, Concentration 198.0 uM, Number of replicates 2.0, Standard deviation 0.00477978979592347 %",98.7%
Cn1cc(NC(=O)c2ccccc2C(F)(F)F)c(-c2ccc3nncn3c2)n1,inhibition,"Thailand/16681/1984, Concentration 49.5 uM, Number of replicates 2.0, Standard deviation 0.5155052691009917 %",-2.16%
same,inhibition,"Thailand/16681/1984, Concentration 99.01 uM, Number of replicates 2.0, Standard deviation 1.0676335364533427 %",-1.41%
same,inhibition,"Thailand/16681/1984, Concentration 198.0 uM, Number of replicates 2.0, Standard deviation 0.4436497392774962 %",-0.287%
Cc1cc(NC(=O)C2CCN(c3ccc(C=O)cc3)CC2)cc(C)c1Br,inhibition,[1],5.87%
N#Cc1cc(Cl)c(NC(=O)C2CCN(c3ccc(C=O)cc3)CC2)c(Cl)c1,inhibition,[1],13.8%
Cc1cc(CO)c2cccc(Cc3ccccc3C(=O)N[C@H]3C[C@@H](O)C3)c2n1,inhibition,"Thailand/16681/1984, Concentration 49.95 uM, Number of replicates 2.0, Standard deviation 0.23931115454400867 %",4.51%
same,inhibition,"Thailand/16681/1984, Concentration 99.9 uM, Number of replicates 2.0, Standard deviation 0.6482239248941596 %",13.2%
O=C(O)c1ccc(C2CCN(Cc3c[nH]c4ccccc34)CC2)cc1,inhibition,"Thailand/16681/1984, Concentration 49.5 uM, Number of replicates 2.0, Standard deviation 1.7343724876046411 %",-5.12%
same,inhibition,"Thailand/16681/1984, Concentration 99.01 uM, Number of replicates 2.0, Standard deviation 1.3827672929369348 %",-3.46%
same,inhibition,"Thailand/16681/1984, Concentration 198.0 uM, Number of replicates 2.0, Standard deviation 2.1920985156415025 %",-1.05%
O=C(c1cc(Cl)ccc1NS(=O)(=O)c1ccc(Oc2ccccc2Cl)cc1)N1CC[C@H](CO)C1,inhibition,"Thailand/16681/1984, Concentration 49.5 uM, Number of replicates 2.0, Standard deviation 1.1631525408138252 %",2.87%
same,inhibition,"Thailand/16681/1984, Concentration 99.01 uM, Number of replicates 2.0, Standard deviation 1.2459174873464263 %",43.6%
same,inhibition,"Thailand/16681/1984, Concentration 198.0 uM, Number of replicates 2.0, Standard deviation 0.07742612093802895 %",97.8%
CNC(=O)Cc1cn(S(=O)(=O)c2ccc(Oc3ccccc3Cl)cc2)c2ccc(Cl)cc12,inhibition,"Thailand/16681/1984, Concentration 49.5 uM, Number of replicates 2.0, Standard deviation 0.8029092652501143 %",1.74%
same,inhibition,"Thailand/16681/1984, Concentration 99.01 uM, Number of replicates 2.0, Standard deviation 0.8699473681419663 %",5.7%
same,inhibition,"Thailand/16681/1984, Concentration 198.0 uM, Number of replicates 2.0, Standard deviation 0.7327772465027748 %",11.9%
Cc1cc(CO)c2cccc(NC(=O)Cc3c(C)c4c(=O)[nH]n(C)c4[nH]c3=O)c2n1,inhibition,"Thailand/16681/1984, Concentration 49.95 uM, Number of replicates 2.0, Standard deviation 1.6565788461475972 %",17.7%
same,inhibition,"Thailand/16681/1984, Concentration 99.9 uM, Number of replicates 2.0, Standard deviation 1.9416844060600267 %",32.2%
O=Cc1ccc(N2CCC(C(=O)N(Cc3c(F)cccc3Cl)C3CC3)CC2)cc1,inhibition,[1],14.1%
CNC(=O)[C@H]1CCCN(S(=O)(=O)c2ccc(Oc3ccccc3Cl)cc2)C1,inhibition,"Thailand/16681/1984, Concentration 49.5 uM, Number of replicates 2.0, Standard deviation 1.3425926640552597 %",-1.55%
same,inhibition,"Thailand/16681/1984, Concentration 99.01 uM, Number of replicates 2.0, Standard deviation 1.1232771440198652 %",0.94%
same,inhibition,"Thailand/16681/1984, Concentration 198.0 uM, Number of replicates 2.0, Standard deviation 1.8999403128335026 %",2.72%
COc1cc(CNC(=O)C2CCN(c3ccc(C=O)cc3)CC2)cc(OC)c1OC,inhibition,[1],17.1%
c1cc(CN2CCC(c3c[nH]c4ncccc34)CC2)c2[nH]ccc2c1,inhibition,"Thailand/16681/1984, Concentration 49.5 uM, Number of replicates 2.0, Standard deviation 0.026124302580992558 %",4.96%
same,inhibition,"Thailand/16681/1984, Concentration 99.01 uM, Number of replicates 2.0, Standard deviation 0.5067052600130082 %",6.59%
same,inhibition,"Thailand/16681/1984, Concentration 198.0 uM, Number of replicates 2.0, Standard deviation 0.02340296486634115 %",6.98%
CSCC[C@H](NC(=O)OC(C)(C)C)C(=O)N1CCC[C@H]1C(=O)Nc1ccc(CN)cc1,inhibition,"Thailand/16681/1984, Concentration 49.5 uM, Number of replicates 2.0, Standard deviation 0.5873455681071067 %",0.345%
same,inhibition,"Thailand/16681/1984, Concentration 99.01 uM, Number of replicates 2.0, Standard deviation 0.9875045381203101 %",1.56%
same,inhibition,"Thailand/16681/1984, Concentration 198.0 uM, Number of replicates 2.0, Standard deviation 0.49996007837732465 %",2.5%
O=Cc1ccc(N2CCC(C(=O)N3CCN(CC(=O)N4CCOCC4)CC3)CC2)cc1,inhibition,[1],10.1%
O=Cc1ccc(N2CCC(C(=O)Nc3cc(Cl)ccc3Br)CC2)cc1,inhibition,[1],13.8%
O=Cc1ccc(N2CCC(C(=O)N(CCCO)Cc3ccncc3)CC2)cc1,inhibition,[1],15.4%
O=Cc1ccc(N2CCC(C(=O)Nc3cc(Cl)cnc3Br)CC2)cc1,inhibition,[1],13.6%
CC(C)NC(=O)CN1CCN(C(=O)C2CCN(c3ccc(C=O)cc3)CC2)CC1,inhibition,[1],11.2%
CC[C@H]1CCN(C(=O)c2cc(Cl)ccc2NS(=O)(=O)c2ccc(Oc3ccccc3Cl)cc2)C1,inhibition,"Thailand/16681/1984, Concentration 49.5 uM, Number of replicates 2.0, Standard deviation 0.47789805764320614 %",46.7%
same,inhibition,"Thailand/16681/1984, Concentration 99.01 uM, Number of replicates 2.0, Standard deviation 0.11836183761011393 %",61.8%
same,inhibition,"Thailand/16681/1984, Concentration 198.0 uM, Number of replicates 2.0, Standard deviation 0.034704726588234404 %",73.4%
O=Cc1ccc(N2CCC(C(=O)Nc3cccnc3Br)CC2)cc1,inhibition,[1],14.7%
C#CCN(Cc1ccccc1Cl)C(=O)C1CCN(c2ccc(C=O)cc2)CC1,inhibition,[1],14.7%
CNC(=O)c1cccc(CNc2cc(Cl)cc(C(=O)NC(C)(C)CO)c2)c1,inhibition,"Thailand/16681/1984, Concentration 49.5 uM, Number of replicates 2.0, Standard deviation 0.035088768671865674 %",-7.67%
same,inhibition,"Thailand/16681/1984, Concentration 99.01 uM, Number of replicates 2.0, Standard deviation 1.5850296817659273 %",-9.84%
same,inhibition,"Thailand/16681/1984, Concentration 198.0 uM, Number of replicates 2.0, Standard deviation 29.186943451836452 %",5.8%
